The source of these data is PubChem BioAssay AID360 (National Center for Advancing Translational Sciences (NCATS), 2006).

Screen size: about 48,000 compounds; about 550 (1.1%) were called active. About 4% were inconclusive and are not listed. Rule as the data show it: active = potency below about 15 µM; inconclusive = mostly about 16 µM to 33 µM; inactive = weaker than that. This is one part of the list.
Potency is read from the fitted curve at half-maximal effect.

Chain of UniProt P04062 (P04062 whole entry, looked up): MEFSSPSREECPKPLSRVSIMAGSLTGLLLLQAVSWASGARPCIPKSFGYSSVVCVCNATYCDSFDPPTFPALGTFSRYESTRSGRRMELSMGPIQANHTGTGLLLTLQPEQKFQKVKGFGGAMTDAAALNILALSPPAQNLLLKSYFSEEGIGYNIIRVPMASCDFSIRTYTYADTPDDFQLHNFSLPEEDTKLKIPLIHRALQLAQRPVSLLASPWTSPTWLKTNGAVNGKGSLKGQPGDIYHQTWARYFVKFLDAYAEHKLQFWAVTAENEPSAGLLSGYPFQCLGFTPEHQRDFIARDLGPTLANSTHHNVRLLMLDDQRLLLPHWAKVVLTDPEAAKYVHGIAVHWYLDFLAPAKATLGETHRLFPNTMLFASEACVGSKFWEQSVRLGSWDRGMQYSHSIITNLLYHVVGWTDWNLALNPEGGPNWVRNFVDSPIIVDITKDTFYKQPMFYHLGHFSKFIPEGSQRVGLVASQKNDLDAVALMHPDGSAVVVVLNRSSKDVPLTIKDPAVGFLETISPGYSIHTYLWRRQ

In the assay the target is Lysosomal acid glucosylceramidase (Homo sapiens) (UniProt P04062). Briefly: Glucocerebrosidase.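 Also: the screen sought inhibitors.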 The note with it: purified enzyme, resorufin glucoside fluorescence (screen aimed at inhibitors), 20 min. In a few lines:
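Normal human glucocerebrosidase (0.2 nM final) was assayed with resorufin β-D-glucopyranoside (30 uM final) in 50mM citric acid/KH2PO4, 10mM sodium taurocholate, 0.01% tween-20, pH 5.9. Compounds were titrated; fluorescence (Ex 548, Em 600) read after 20 min at RT.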
For `COc1ccc(CCNC(=O)C2CCCN(c3nn4c(=O)cc(C)nc4s3)C2)cc1OC` (stereo not drawn), the Potency was inactive: > 76.9 µM.

For the compound `Nc1c(C(=O)NCc2ccco2)nnn1Cc1ccccc1`, the Potency was inactive: > 76.9 µM.

Consider `CN(C)c1nc(Oc2ccc(=O)[nH]n2)nc(N2CCCCC2)n1`, for which the Potency was inactive: > 76.9 µM.

As for `Fc1ccc(-c2cc3nc(-c4ccccc4)cc(N4CCOCC4)n3n2)cc1`, the Potency was inactive: > 76.9 µM.

With `COC(=O)COc1ccc(S(=O)(=O)Nc2ccc(C(N)=O)cc2)cc1`, the Potency was inactive: > 76.9 µM.

`CCn1cc(C(=O)O)c(=O)c2cnc(N3CCN(C(=O)Nc4ccccc4)CC3)nc21`: the Potency is inactive: > 76.9 µM.

For the compound `O=C1Nc2ccc(NS(=O)(=O)c3cccs3)c3cccc1c23`, the Potency was inactive: > 76.9 µM.

Consider `CCCc1nnc(NC(=O)CCN2C(=O)c3ccccc3C2=O)s1`, for which the Potency is inactive: > 76.9 µM.

For `Cc1nnc(SCC(=O)NCCN2C(=O)CSC2=O)s1`, the Potency is inactive: > 76.9 µM.

On to `CCN1CCN(C(=O)CCCCCn2c(=O)[nH]c3cc(C(=O)OC)ccc3c2=O)CC1`, for which the Potency was inactive: > 76.9 µM.

For the compound `O=C(CN1C(=O)CSC1=O)c1ccccc1`, the Potency is inactive: > 76.9 µM.

For the compound `COc1ccc(C(=O)N2CCN(S(=O)(=O)c3ccccc3)CC2)c(OC)c1`, the Potency is inactive: > 76.9 µM.

`COc1ccc(CCn2c(N3CCN(Cc4ccccc4)CC3)nc3c2c(=O)[nH]c(=O)n3C)cc1`: the Potency was inactive: > 76.9 µM.

With `CCOc1ccccc1C1CC(=O)NC(SCC)=C1C#N` (stereo not drawn), the Potency was inactive: > 76.9 µM.

Regarding `CCOCCCNc1nc2ccccc2[nH]1`, the Potency was inactive: > 76.9 µM.

`COc1ccc(OC)c(S(=O)(=O)NCc2cccnc2)c1`: the Potency is inactive: > 76.9 µM.

`CC(=O)Nc1ccc(OCC(O)Cn2nc(C)c(C(C)=O)c2C)cc1` (stereo not drawn): the Potency is inactive: > 76.9 µM.

In the case of `CCOC(=O)c1ccc(NC(=O)C(C)NS(=O)(=O)c2ccc(OC)cc2)cc1` (stereo not drawn), the Potency is inactive: > 76.9 µM.

Take `Cc1ccccc1C(=O)N1CCN(c2nc(N3CCOCC3)nc(N3CCOCC3)n2)CC1`: the Potency was inactive: > 76.9 µM.

For the compound `CCOCCCNC(=O)CSc1ccccc1`, the Potency is inactive: > 76.9 µM.

For the compound `O=C(O)CCN(CCC(=O)O)c1ccccc1`, the Potency was inactive: > 76.9 µM.

For `COC(=O)c1ccc(C(=O)OC)c(NC(=O)CN2CCN(c3ccccc3OC)CC2)c1`, the Potency was inactive: > 76.9 µM.

`Nc1ccc(-c2cnc(-c3ccc(N)cc3)nc2)cc1`: the Potency was inactive: > 76.9 µM.

For `Nc1nc(-c2ccc(Cl)cc2)nn1C(=O)c1cccnc1`, the Potency was inactive: > 76.9 µM.

Take `Nc1ccc(S(=O)(=O)c2cccc(N)c2)cc1`: the Potency was inactive: > 76.9 µM.

In the case of `O=C(Nc1ccc2c(c1)CCC2)C1CCN(c2c3c(nc4ncnn24)CCC3)CC1`, the Potency is inactive: > 76.9 µM.

For the compound `COC(=O)c1ccsc1NC(=O)CSc1nnnn1-c1ccccc1SC`, the Potency is inactive: > 76.9 µM.

As for `COC(=O)c1ccc(Cn2cc(Cl)cn2)cc1`, the Potency was inactive: > 76.9 µM.

As for `c1ccc(OCc2nc3ccccc3[nH]2)cc1`, the Potency is inactive: > 76.9 µM.

Turning to `Cc1ccc(S(=O)(=O)N(C)Cc2cc3ccccc3[nH]c2=O)cc1`, the Potency was inactive: > 76.9 µM.

With `CCc1ccccc1NC(=O)c1cnccn1`, the Potency was inactive: > 76.9 µM.

Turning to `COc1ccc(OC)c(NC(=O)COC(=O)c2ccc(S(=O)(=O)N3CCOCC3)cc2)c1`, the Potency was inactive: > 76.9 µM.

As for `COC(=O)c1ccc(COc2nc(C)cc(C)c2C#N)o1`, the Potency is inactive: > 76.9 µM.

For `CCc1nc(SCC(=O)NCCc2ccccc2)n[nH]1`, the Potency was inactive: > 76.9 µM.

On to `O=C(Nc1ccccc1)c1ccccc1OCC(O)CN1C(=O)c2ccccc2S1(=O)=O` (stereo not drawn), for which the Potency was inactive: > 76.9 µM.

With `CCn1c(=N)c(C(=O)NCc2cccnc2)cc2c(=O)n3cccc(C)c3nc21`, the Potency was inactive: > 76.9 µM.

As for `O=C(NCc1cccs1)Nc1ccc2c(c1)OCO2`, the Potency is inactive: > 76.9 µM.

In the case of `COc1ccccc1-c1nnc(Nc2nc3c(OC)cccc3s2)o1`, the Potency was inactive: > 76.9 µM.

For `CCOc1ccccc1Nc1nc(N)nc(CSc2nncn2C)n1`, the Potency was inactive: > 76.9 µM.

As to `Cc1ccc(N2CC(C(=O)Nc3ccc4c(c3)OCO4)CC2=O)cc1` (stereo not drawn), the Potency is inactive: > 76.9 µM.

With `CCOC(=O)C1=C(C)NC(=O)NC1C` (stereo not drawn), the Potency is inactive: > 76.9 µM.

With `Cn1c(=O)n(CC(=O)O)c(=O)c2c1nc1n2CCS1`, the Potency was inactive: > 76.9 µM.

`COc1ccc(C2c3c(oc4ccccc4c3=O)C(=O)N2CCCN2CCOCC2)cc1` (stereo not drawn): the Potency was inactive: > 76.9 µM.

For `Cc1nc(NC2=NCN(Cc3ccc4c(c3)OCO4)CN2)nc2ccccc12`, the Potency was inactive: > 76.9 µM.

As to `CCOC(=O)c1cnc2sc3c(n2c1=O)CCCC3`, the Potency was inactive: > 76.9 µM.

For `CCOC(=O)c1cc(-c2ccc(F)cc2)n(CC(=O)N2CCCC2)c1C`, the Potency is inactive: > 76.9 µM.

For `Cc1nn(-c2nc3ccccc3n2Cc2ccccc2)c2c1C(=O)CC(C)(C)C2`, the Potency is inactive: > 76.9 µM.

With `CSc1nsc(NC(=O)Cc2ccccc2)n1`, the Potency is inactive: > 76.9 µM.

Regarding `CCNc1nc(SCCOc2ccccc2)nc(N(C)C)n1`, the Potency was inactive: > 76.9 µM.

Consider `COc1ccc(C)cc1Cn1c(S(C)(=O)=O)nc2ccccc21`, for which the Potency is inactive: > 76.9 µM.

Turning to `Cc1ccc(NC(=O)Cn2c(=O)n(CCCC(=O)NCc3ccco3)c(=O)c3ccccc32)cc1`, the Potency is inactive: > 76.9 µM.

In the case of `COc1cccc(CNCCSc2nnnn2C)c1`, the Potency was inactive: > 76.9 µM.

In the case of `O=c1c2cnn(-c3ccccc3)c2ncn1/N=C/c1ccncc1`, the Potency is inactive: > 76.9 µM.

Turning to `CCn1c(SCC(=O)NCc2ccco2)nnc1-c1cccs1`, the Potency was inactive: > 76.9 µM.

As to `N#CCCCSc1nnnn1-c1cccc(Cl)c1`, the Potency was inactive: > 76.9 µM.

Consider `N#Cc1cn(CCOc2ccccc2F)c2ccccc12`, for which the Potency was inactive: > 76.9 µM.

With `Cc1ccc(-c2cn(S(=O)(=O)c3cccc4nsnc34)nc2N)cc1`, the Potency was inactive: > 76.9 µM.

With `Cc1ccc(S(=O)(=O)N(CC(=O)N2CCOCC2)CC(=O)N2CCOCC2)cc1`, the Potency is inactive: > 76.9 µM.

On to `Cc1ccc(Cn2ccc(NC(=O)c3noc4c3CCCC4)n2)cc1`, for which the Potency is inactive: > 76.9 µM.

As to `CCN(Cc1cc2ccc(C)cc2[nH]c1=O)C(=O)c1cccnc1`, the Potency is inactive: > 76.9 µM.

Take `C#Cc1ccc(C(=O)Nc2cc(C(N)=O)ccc2N2CCOCC2)cc1`: the Potency is inactive: > 76.9 µM.

In the case of `O=C(COc1nc2ccccc2nc1N1CCOCC1)N1CCc2ccccc21`, the Potency was inactive: > 76.9 µM.

For the compound `N#CCSc1nc2c(cc1C#N)CCCC2`, the Potency is inactive: > 76.9 µM.

Turning to `Cn1c(=O)c2cnc(N3CCOCC3)nc2n(C)c1=O`, the Potency was inactive: > 76.9 µM.

Consider `CN(C)S(=O)(=O)c1ccc2nc(NC(=O)c3cccnc3)sc2c1`, for which the Potency is inactive: > 76.9 µM.

As to `O=C(NCc1cccs1)C1CCN(S(=O)(=O)c2ccc3c(c2)OCCO3)CC1`, the Potency was inactive: > 76.9 µM.

`C/C(=N\O)c1ccccc1C(=O)O`: the Potency is inactive: > 76.9 µM.

As to `COc1ccc(C2C(C(=O)N3CCCC3)c3cc(OC)c(OC)cc3C(=O)N2C)cc1OC` (stereo not drawn), the Potency was inactive: > 76.9 µM.

Consider `c1ccc(-n2nnnc2Oc2cccc3cccnc23)cc1`, for which the Potency was inactive: > 76.9 µM.

On to `CCCCCCNC(=O)C(C#N)c1nc2ccccc2nc1N1CCOCC1` (stereo not drawn), for which the Potency is inactive: > 76.9 µM.

Consider `O=C(NCCN1CCN(c2ccccc2)CC1)c1ccc(NC(=O)C2CCCO2)cc1` (stereo not drawn), for which the Potency is inactive: > 76.9 µM.

In the case of `O=C(NCc1ccc2c(c1)OCO2)c1ccc(CN2CCOCC2)cc1`, the Potency is inactive: > 76.9 µM.

As for `COCCCNC(=O)c1ccc(N(C)S(=O)(=O)c2ccc(OC)cc2)cc1`, the Potency is inactive: > 76.9 µM.

With `COc1cc(C)c(Cl)cc1S(=O)(=O)NCC1CCCO1` (stereo not drawn), the Potency was inactive: > 76.9 µM.

For the compound `CC(=O)C1=C(C)OC(N)=C(C#N)C1c1ccco1` (stereo not drawn), the Potency was inactive: > 76.9 µM.

As to `Cc1ccc(C2C=C(c3ccc4c(c3)OCO4)Nc3ncnn32)cc1` (stereo not drawn), the Potency was inactive: > 76.9 µM.

`Cc1ccc(-c2nnc(CSc3nc(C)nc4sc(C)c(C)c34)o2)cc1`: the Potency was inactive: > 76.9 µM.

On to `Cn1c(SCC(=O)NC2CCCC2)nc2cccnc21`, for which the Potency was inactive: > 76.9 µM.

In the case of `COCCOC(=O)c1c(NC(=O)CN2CCOCC2)sc(C(N)=O)c1C`, the Potency was inactive: > 76.9 µM.

Take `O=C(CCN1C(=O)c2ccccc2C1=O)NC1=NCCS1`: the Potency is inactive: > 76.9 µM.

As for `O=C(Cc1ccc(-c2ccccc2)cc1)N1CCOCC1`, the Potency is inactive: > 76.9 µM.

As to `Cn1c2c(c(=O)n(C)c1=O)C(c1ccc(Br)cc1)Nc1ccccc1O2` (stereo not drawn), the Potency is inactive: > 76.9 µM.

For the compound `COc1cc(NC(=O)c2ccc(Cl)cc2)c(OC)cc1NC(=O)CN1CCOCC1`, the Potency was inactive: > 76.9 µM.

As to `CN(C(=O)COC(=O)c1ccccc1Nc1ccccc1)C1CCS(=O)(=O)C1` (stereo not drawn), the Potency was inactive: > 76.9 µM.

Consider `CCOC(=O)c1[nH]c(C)c(C(=O)N2CCN(C(=O)OCC)CC2)c1CC`, for which the Potency is inactive: > 76.9 µM.

`N=c1n(CCO)c2ccccc2n1Cc1ccccc1Cl`: the Potency was inactive: > 76.9 µM.

As for `COc1cc2c(cc1OC)CN(Cc1cc(=O)n3cc(C)ccc3n1)CC2`, the Potency was inactive: > 76.9 µM.

As for `CC(=O)Nc1nc2c(ncn2COCCOC(C)=O)c(=O)[nH]1`, the Potency is inactive: > 76.9 µM.

In the case of `COc1ccc2c(c1)-c1nc(NC(=O)c3ccco3)sc1CC2`, the Potency was inactive: > 76.9 µM.

On to `O=C(CSc1nc(N2CCCCC2)nc(N2CCCCC2)n1)NC1CCCCC1`, for which the Potency is inactive: > 76.9 µM.

Take `Cc1occc1C(=O)Nc1c(F)cc(F)cc1Br`: the Potency was inactive: > 76.9 µM.

Regarding `Cc1ccc(CNC(=O)c2ccccc2NC(=O)CSc2nnnn2C)cc1`, the Potency is inactive: > 76.9 µM.

`CCOC(=O)c1[nH]c(COC(=O)c2ccccc2NC(=O)c2ccco2)c(C(=O)OCC)c1C`: the Potency is inactive: > 76.9 µM.
